This passage reports growth inhibition call results from the antibiotic and cytotoxicity screens of Wong et al. (2023).

Each structure is given as a SMILES string. Some of the results follow.

This assay has as its system S. aureus RN4220. Briefly: growth inhibition call (relative growth <= 0.2). Particulars: 50 µM.
In the case of `CCS(=O)(=O)N1CCC[C@]2(C(=O)NCC3CC3)CN(Cc3cnn(C)c3)C[C@H]2C1`, the growth inhibition call was “inactive”.
Take `CNC[C@@H]1Oc2cc(C#CCN(C)C)ccc2S(=O)(=O)N([C@H](C)CO)C[C@H]1C`: the growth inhibition call was “inactive”.
`C[C@H](CO)N1C[C@H](C)[C@H](CN(C)S(C)(=O)=O)Oc2ccc(NC(=O)Cc3cn(C)c4ccccc34)cc2C1=O`: the growth inhibition call was “inactive”.
For `COCCn1c(=NN)[nH]c2ccsc2c1=O` the value was “inactive”; for `C[C@@H]1CCCCO[C@@H](CN(C)C(=O)Cc2ccccc2)[C@H](C)CN([C@@H](C)CO)C(=O)c2cc(NC(=O)Nc3ccccc3)ccc2O1`, “inactive”; for `C[C@@H]1CN([C@@H](C)CO)S(=O)(=O)c2ccc(-c3cccnc3)cc2O[C@@H]1CN(C)CC1CCOCC1`, “inactive”.
For `C[C@H](CO)N1C[C@H](C)[C@@H](CN(C)Cc2ccc(Cl)c(Cl)c2)OCCCC[C@H](C)Oc2ccc(NS(=O)(=O)c3cn(C)cn3)cc2C1=O` the value was “inactive”; for `C[C@@H]1CN([C@H](C)CO)C(=O)c2cccc(NS(=O)(=O)c3ccc(Cl)cc3)c2O[C@@H]1CN(C)Cc1ccc(-c2ccccc2)cc1`, “inactive”.
Consider `C[C@@H](N)c1nc2c(s1)CCCC2`, for which the growth inhibition call is “inactive”.
For `C[C@@H]1CN([C@H](C)CO)C(=O)c2cc(N(C)C)ccc2O[C@@H](C)CCCCO[C@@H]1CN(C)C(=O)CCCN(C)C` the value was “inactive”; for `C[C@@H]1CN([C@H](C)CO)C(=O)c2cccc(NC(=O)c3cnccn3)c2O[C@H]1CN(C)S(=O)(=O)c1ccc(F)cc1`, “inactive”; for `c1ccc(-c2cccs2)nc1`, “inactive”.
Take `C[C@@H]1CN([C@@H](C)CO)C(=O)c2cc(C#Cc3ccc(F)cc3)cnc2O[C@@H]1CN(C)CC1CCOCC1`: the growth inhibition call was “inactive”.
With `C[C@@H]1CCCCO[C@@H](CN(C)S(=O)(=O)c2cn(C)cn2)[C@H](C)CN([C@@H](C)CO)C(=O)c2cc(NC(=O)Nc3ccc(C(F)(F)F)cc3)ccc2O1`, the growth inhibition call is “inactive”.
Take `Cc1noc(C)c1NC(=O)Nc1ccc2c(c1)C(=O)N([C@@H](C)CO)C[C@@H](C)[C@H](CN(C)C(=O)c1ccccc1)OCCCC[C@@H](C)O2`: the growth inhibition call is “inactive”.
Turning to `C[C@@H]1CN([C@@H](C)CO)C(=O)c2cc(NC(=O)Cc3ccccc3)ccc2O[C@@H](C)CCCCO[C@H]1CN(C)C(=O)C1CCCCC1`, the growth inhibition call was “inactive”.
As to `c1ccc2[nH]c(-c3cscn3)nc2c1`, the growth inhibition call is “inactive”.
For the molecule `O=S(=O)(N1CCOCC1)n1nnc2ccccc21`, the growth inhibition call was “inactive”.
Take `O=C(C[C@H]1CC[C@@H]2[C@H](COC[C@H](O)CN2Cc2ccccc2F)O1)N[C@@H]1CCN(Cc2ccccc2)C1`: the growth inhibition call was “inactive”.
In the case of `OCC(CO)NC1CC(O)(CO)C(O)C(O)C1O` (stereo not drawn), the growth inhibition call is “inactive”.
Consider `C[C@H]1CN([C@@H](C)CO)S(=O)(=O)c2ccc(C3=CCCC3)cc2O[C@H]1CN(C)C(=O)Cc1ccncc1`, for which the growth inhibition call was “inactive”.
On to `O=c1[nH]nc(N2CCSCC2)[nH]1`, for which the growth inhibition call is “inactive”.
On to `C[C@@H]1CN([C@H](C)CO)C(=O)Cc2cc(NS(=O)(=O)c3cccs3)ccc2O[C@@H]1CN(C)CC1CC1`, for which the growth inhibition call was “inactive”.
Regarding `CCOC(=O)C1CCN(S(=O)(=O)c2c(C)n(C)c(=O)n(C)c2=O)CC1`, the growth inhibition call was “inactive”.
Consider `C[C@H](CO)N1C[C@H](C)[C@@H](CN(C)C(=O)Nc2ccc3c(c2)OCO3)Oc2ccc(NC(=O)C3CC3)cc2CC1=O`, for which the growth inhibition call is “inactive”.
As for `C[C@@H]1CN([C@H](C)CO)C(=O)c2cc(NS(=O)(=O)c3ccc(F)cc3)ccc2O[C@@H]1CN(C)S(=O)(=O)c1ccccc1`, the growth inhibition call was “inactive”.
As to `Cc1noc(C)c1NC(=O)Nc1ccc2c(c1)C(=O)N([C@@H](C)CO)C[C@@H](C)[C@@H](CN(C)S(=O)(=O)c1ccccc1)OCCCC[C@@H](C)O2`, the growth inhibition call is “inactive”.
Turning to `Cc1noc(C)c1S(=O)(=O)Nc1ccc2c(c1)CC(=O)N([C@H](C)CO)C[C@@H](C)[C@@H](CN(C)C(=O)NC(C)C)O2`, the growth inhibition call is “inactive”.
